Measured values from patent US11618753B2 (priority 2018, dated 2023).

The molecules below were run on MLKL phosphorylation, HT29-L23 human colorectal adenocarcinoma cells (assay: cells). Settings: read-out: pMLKL HCS Cell Assay (IC50, uM).

Question: `Cc1cc(-c2cc(C(F)(F)F)c3c(N)ncnn23)cc(C(=O)N[C@@H]2CN(C(=O)CC(F)(F)F)C[C@@H]2F)c1Cl` [Example 717, 5-[4-amino-5-(trifluoromethyl)pyrrolo[2,1-f][1,2,4]triazin-7-yl]-2-chloro-N-[(3R,4S)-4-fluoro-1-(3,3,3-trifluoropropanoyl)pyrrolidin-3-yl]-3-methylbenzamide] was tested. Which IC50 did it give?
Answer: 0.029 µM

Question: `COc1cc(-c2cc(C(F)(F)F)c3c(N)ncnn23)cc(C(=O)N[C@@H]2CN(C(=O)CC(C(F)(F)F)C(F)(F)F)C[C@@H]2F)c1OC` [Example 595, 5-[4-amino-5-(trifluoromethyl)pyrrolo[2,1-f][1,2,4]triazin-7-yl]-N-[(3R,4S)-4-fluoro-1-[4,4,4-trifluoro-3-(trifluoromethyl)butanoyl]pyrrolidin-3-yl]-2,3-dimethoxybenzamide] was tested. Which IC50 did it give?
Answer: 0.202 µM

Question: For `Cc1nc(C)c(-c2cc(C(F)(F)F)c3c(N)ncnn23)cc1C(=O)N1CCOC(Cc2ccccc2)C1` (stereo not shown) [Example 528, 7-[5-(2-benzylmorpholine-4-carbonyl)-2,6-dimethylpyridin-3-yl]-5-(trifluoromethyl)pyrrolo[2,1-f][1,2,4]triazin-4-amine], which IC50 is on record?
Answer: 0.43 µM

Question: With `Nc1ncnn2c(-c3ccc(OC(F)F)c(C(=O)N[C@@H]4CN(C(=O)C5CCC(F)(F)C5)C[C@@H]4F)c3)cc(C(F)(F)F)c12` (stereo partly drawn) [Example 1094, 5-[4-amino-5-(trifluoromethyl)pyrrolo[2,1-f][1,2,4]triazin-7-yl]-N-[(3R,4S)-1-(3,3-difluorocyclopentanecarbonyl)-4-fluoropyrrolidin-3-yl]-2-(difluoromethoxy)benzamide] as the molecule, how does the IC50 read?
Answer: 0.021 µM

Question: With `COc1ncc(-c2cc(C(F)(F)F)c3c(N)ncnn23)cc1C(=O)N[C@H]1CCN(C(=O)CC(C)(C)C)C1` [Example 261, 5-[4-amino-5-(trifluoromethyl)pyrrolo[2,1-f][1,2,4]triazin-7-yl]-N-[(3S)-1-(3,3-dimethylbutanoyl)pyrrolidin-3-yl]-2-methoxypyridine-3-carboxamide] as the molecule, how does the IC50 read?
Answer: 0.315 µM

Question: Which IC50 does the source give for `Nc1ncnn2c(-c3ccc(F)c(C(=O)N[C@@H]4CN(C(=O)C5CC(F)(F)C5)C[C@@H]4F)c3F)cc(C(F)(F)F)c12` [Example 727, 3-[4-amino-5-(trifluoromethyl)pyrrolo[2,1-f][1,2,4]triazin-7-yl]-N-[(3R,4S)-1-(3,3-difluorocyclobutanecarbonyl)-4-fluoropyrrolidin-3-yl]-2,6-difluorobenzamide] here?
Answer: 0.069 µM

Question: How did the IC50 turn out when `COc1ncc(-c2cc(C(F)(F)F)c3c(N)ncnn23)cc1C(=O)N[C@@H]1CN(S(=O)(=O)c2ccc(F)cc2)C[C@@H]1F` [Example 505, 5-[4-amino-5-(trifluoromethyl)pyrrolo[2,1-f][1,2,4]triazin-7-yl]-N-[(3R,4S)-4-fluoro-1-(4-fluorobenzenesulfonyl)pyrrolidin-3-yl]-2-methoxypyridine-3-carboxamide] was run?
Answer: 0.012 µM

Question: With `COc1ncc(-c2cc(CN3CCC(F)(F)CC3)c3c(N)ncnn23)cc1C(=O)N[C@@H]1CN(C(=O)OC2CCC2)C[C@@H]1F` [Example 1509, cyclobutyl (3R,4S)-3-(5-{4-amino-5-[(4,4-difluoropiperidin-1-yl)methyl]pyrrolo[2,1-f][1,2,4]triazin-7-yl}-2-methoxypyridine-3-amido)-4-fluoropyrrolidine-1-carboxylate] as the molecule, how does the IC50 read?
Answer: 0.0021 µM

Question: `COc1ncc(-c2cc(C(F)(F)F)c3c(N)ncnn23)cc1C(=O)NC1CN(C(C)c2csc(C)n2)C[C@@H]1F` (stereo partly shown) [Example 442] was tested. Which IC50 did it give?
Answer: 0.017 µM

Question: How did the IC50 turn out when `COc1ncc(-c2cc(CN3CCC(F)(F)CC3)c3c(N)ncnn23)cc1C(=O)N[C@@H]1CN(C(=O)C(C)(C)O)C[C@@H]1F` [Example 1260, 5-{4-amino-5-[(4,4-difluoropiperidin-1-yl)methyl]pyrrolo[2,1-f][1,2,4]triazin-7-yl}-N-[(3R,4S)-4-fluoro-1-(2-hydroxy-2-methylpropanoyl)pyrrolidin-3-yl]-2-methoxypyridine-3-carboxamide] was run?
Answer: 0.00055 µM

Question: Which IC50 does the source give for `COc1ncc(-c2cc(CN3CCOCC3)c3c(N)ncnn23)cc1C(=O)N[C@@H]1CN(C(=O)C2CC(F)(F)C2)C[C@@H]1F` [Example 487, 5-{4-amino-5-[(morpholin-4-yl)methyl]pyrrolo[2,1-f][1,2,4]triazin-7-yl}-N-[(3R,4S)-1-(3,3-difluorocyclobutanecarbonyl)-4-fluoropyrrolidin-3-yl]-2-methoxypyridine-3-carboxamide] here?
Answer: 0.0013 µM

Question: For `COc1ncc(-c2cc(CN3CC(N)C3)c3c(N)ncnn23)cc1C(=O)N[C@@H]1CN(CC(O)C(F)(F)F)C[C@@H]1F` (stereo partly drawn) [Example 482, 5-{4-amino-5-[(3-aminoazetidin-1-yl)methyl]pyrrolo[2,1-f][1,2,4]triazin-7-yl}-N[(3R,4S)-4-fluoro-1-(3,3,3-trifluoro-2-hydroxypropyl)pyrrolidin-3-yl]-2-methoxypyridine-3-carboxamide], which IC50 is on record?
Answer: 0.205 µM

Question: Which IC50 does the source give for `COc1ncc(-c2cc(C(F)(F)F)c3c(N)ncnn23)cc1C(=O)NC1CN(Cc2cc(C)on2)CC1F` (racemic) [Example 242, 5-[4-amino-5-(trifluoromethyl)pyrrolo[2,1-f][1,2,4]triazin-7-yl]-N-{4-fluoro-1-[(5-methyl-1,2-oxazol-3-yl)methyl]pyrrolidin-3-yl}-2-methoxypyridine-3-carboxamide] here?
Answer: 0.032 µM

Question: Which IC50 does the source give for `Cc1c(F)cc(-c2cc(C(F)(F)F)c3c(N)ncnn23)cc1C(=O)N[C@@H]1CN(C(=O)C2CC2(F)F)C[C@@H]1F` (stereo partly drawn) [Example 675, 5-[4-amino-5-(trifluoromethyl)pyrrolo[2,1-f][1,2,4]triazin-7-yl]-N-[(3R,4S)-1-(2,2-difluorocyclopropanecarbonyl)-4-fluoropyrrolidin-3-yl]-3-fluoro-2-methylbenzamide] here?
Answer: 0.0039 µM

Question: `CC(C)(C)CC(=O)N1C[C@H](F)[C@H](NC(=O)c2cccc(-c3cc(C(F)(F)F)c4c(N)ncnn34)c2)C1` [Example 90, 3-[4-amino-5-(trifluoromethyl)pyrrolo[2,1-f][1,2,4]triazin-7-yl]-N-[(3R,4S)-1-(3,3-dimethylbutanoyl)-4-fluoropyrrolidin-3-yl]benzamide] was tested. Which IC50 did it give?
Answer: 0.013 µM

Question: For `Cc1ncc(-c2cc(C(F)(F)F)c3c(N)ncnn23)cc1C(=O)N[C@@H]1CN(C(=O)[C@@H](O)CC(C)C)C[C@@H]1F` [Example 365, 5-[4-amino-5-(trifluoromethyl)pyrrolo [2,1-f][1,2,4]triazin-7-yl]-N-[(3R,4S)-4-fluoro-1-[(2S)-2-hydroxy-4-methyl-pentanoyl]pyrrolidin-3-yl]-2-methyl-pyridine-3-carboxamide], which IC50 is on record?
Answer: 0.121 µM

Question: For `CC(O)(CC(=O)N1C[C@H](F)[C@H](NC(=O)c2cc(-c3cc(C(F)(F)F)c4c(N)ncnn34)c(F)cc2Cl)C1)C(F)(F)F` (stereo partly drawn) [Example 881, 5-[4-amino-5-(trifluoromethyl)pyrrolo[2,1-f][1,2,4]triazin-7-yl]-2-chloro-4-fluoro-N-[(3R,4S)-4-fluoro-1-(4,4,4-trifluoro-3-hydroxy-3-methylbutanoyl)pyrrolidin-3-yl]benzamide], which IC50 is on record?
Answer: 0.0056 µM

Question: For `Cc1ncc(-c2cc(C(F)(F)F)c3c(N)ncnn23)cc1C(=O)Nc1cn(CCc2ccccc2)cn1` [Example 1785, 5-(4-amino-5-(trifluoromethyl)pyrrolo[2,1-f][1,2,4]triazin-7-yl)-2-methyl-N-(1-phenethyl-1H-imidazol-4-yl)nicotinamide], which IC50 is on record?
Answer: 0.0023 µM

Question: `Nc1ncnn2c(-c3ccc(Cl)c(C(=O)N[C@@H]4CN(C(=O)c5cc(F)ccc5F)C[C@@H]4F)c3)cc(C(F)(F)F)c12` [Example 957, 5-[4-amino-5-(trifluoromethyl)pyrrolo[2,1-f][1,2,4]triazin-7-yl]-2-chloro-N-[(3R,4S)-1-(2,5-difluorobenzoyl)-4-fluoropyrrolidin-3-yl]benzamide] was tested. Which IC50 did it give?
Answer: 0.013 µM

Question: `Cc1ncc(-c2cc(C(F)(F)F)c3c(N)ncnn23)cc1C(=O)N[C@@H]1CN(C(=O)C2CCCCC2)C[C@@H]1C` [Example 21, 5-[4-amino-5-(trifluoromethyl)pyrrolo[2,1-f][1,2,4]triazin-7-yl]-N-[(3S,4S)-1-cyclohexanecarbonyl-4-methylpyrrolidin-3-yl]-2-methylpyridine-3-carboxamide] was tested. Which IC50 did it give?
Answer: 0.015 µM

Question: With `COc1ncc(-c2cc(C(F)(F)F)c3c(N)ncnn23)cc1C(=O)N[C@@H]1CN(C(=O)C(N)C(F)(F)F)C[C@@H]1F` (stereo partly drawn) [Example 1673, N-((3R,4S)-1-(2-amino-3,3,3-trifluoropropanoyl)-4-fluoropyrrolidin-3-yl)-5-(4-amino-5-(trifluoromethyl)pyrrolo[2,1-f][1,2,4]triazin-7-yl)-2-methoxynicotinamide] as the molecule, how does the IC50 read?
Answer: 0.036 µM

Question: With `CC(C)(F)C(=O)N1C[C@H](F)[C@H](NC(=O)c2cc(-c3cc(CN4CC(F)(F)C4)c4c(N)ncnn34)c(F)cc2Cl)C1` [Example 1306, 5-{4-amino-5-[(3,3-difluoroazetidin-1-yl)methyl]pyrrolo[2,1-f][1,2,4]-triazin-7-yl}-2-chloro-4-fluoro-N-[(3R,4S)-4-fluoro-1-(2-fluoro-2-methylpropanoyl)pyrrolidin-3-yl]-benzamide] as the molecule, how does the IC50 read?
Answer: 0.0028 µM

Question: With `COc1ncc(-c2cc(CN3CCC[C@H]3C(F)(F)F)c3c(N)ncnn23)cc1C(=O)N[C@@H]1CN(C(=O)[C@@](C)(O)C(F)(F)F)C[C@@H]1F` [Example 1585, 5-(4-amino-5-{[(2S)-2-(trifluoromethyl)pyrrolidin-1-yl]methyl}pyrrolo[2,1-f][1,2,4]triazin-7-yl)-N-[(3R,4S)-4-fluoro-1-[(2R)-3,3,3-trifluoro-2-hydroxy-2-methylpropanoyl]pyrrolidin-3-yl]-2-methoxypyridine-3-carboxamide] as the molecule, how does the IC50 read?
Answer: 0.0016 µM

Question: For `CCC(O)(C(=O)N1C[C@H](F)[C@H](NC(=O)c2cc(-c3cc(C(F)(F)F)c4c(N)ncnn34)ccc2OC(F)F)C1)C(F)(F)F` (stereo partly drawn) [Example 1096, 5-[4-amino-5-(trifluoromethyl)pyrrolo[2,1-f][1,2,4]triazin-7-yl]-2-(difluoromethoxy)-N-[(3R,4S)-4-fluoro-1-[2-hydroxy-2-(trifluoromethyl)butanoyl]pyrrolidin-3-yl]benzamide], which IC50 is on record?
Answer: 0.025 µM

Question: How did the IC50 turn out when `C[C@@](O)(C(=O)N1C[C@H](F)[C@H](NC(=O)c2cncc(-c3cc(C(F)(F)F)c4c(N)ncnn34)c2)C1)C(F)(F)F` [Example 279, 5-[4-amino-5-(trifluoromethyl)pyrrolo[2,1-f][1,2,4]triazin-7-yl]-N-[(3R,4S)-4-fluoro-1-[(2R)-3,3,3-trifluoro-2-hydroxy-2-methylpropanoyl]pyrrolidin-3-yl]pyridine-3-carboxamide] was run?
Answer: 0.08 µM
